In PubChem BioAssay AID1745853 (National Center for Advancing Translational Sciences (NCATS), 2022):
Some of the results follow. Shown are side measurements of this screen, not its main read-out; they come without a call.

What was measured:
Assay in all cases: Primary Screen for Target Class Profiling of Small Molecule Inhibitors of Methyltransferases
[1] = biological target: Glycine N-methyltransferase (Homo sapiens) (UniProt Q14749); settings: purified enzyme, MTase-Glo SAH luminescence; measured here: GNMT inhibition; at 40 µM; stronger effect = lower value
Description: (§1) PI: Matthew D. Hall Ph.D. and Quinlin M. Hanson Ph.D.
(§2) National Center for Advancing Translational Sciences (NCATS)
(§3) National Institute of Health (NIH), Rockville, MD
(§4) Target class profiling (TCP) is a chemical biology approach amenable to investigating understudied biological targets. TCP is achieved by developing a generalizable assay platform and applying it to screen a curated set of compound libraries against representative members of a target class. Small molecule methyltransferases (SMMTase) are a subclass of methyltransferase that act on metabolites to modulate signaling pathways, metabolize xenobiotics, or balance the available methyl pool. We screened four curated libraries totaling 27,574 unique compounds against the SMMTases nicotinamide N-methyltransferase (NNMT), phenylethanolamine N-methyltransferase (PNMT), histamine N-methyltransferase (HNMT), glycine N-methyltransferase (GNMT), catechol O-methyltransferase (COMT), and guanidinoacetate N-methyltransferase (GAMT). The data generated by this TCP can be leveraged for informed tool molecule development. For example, in the associated publication we identified a chemotype of HNMT-selective inhibitors. Additionally, we identified a putative SMMTase-selective inhibitor with potential as a tool molecule for studying broader methyltransferase biology.
(§5) High-through put screening assays were developed at the National Center for Advancing Translational Science (NCATS) for the enzymes NNMT, PNMT, HNMT, GNMT, COMT, and GAMT. Enzymatic activity was measured as a function of SAM cofactor conversion using the MTase Glo kit (Promega) for all enzymes. All assays were performed in 1536-well format with substrates and SAM concentrations at KM values. Enzyme concentration and assay timing were optimized for 10-20% SAM conversion. Initial screening of 27,574 compounds was done as single-point assays using the highest compound concentration (40 uM). […] These compounds were replated in 11-point dose response and assayed against NNMT, PNMT, HNMT, GNMT, COMT, GAMT, and a counter-assay. The IC50 and efficacy (maximal response) values were determined for each dose-response curve. These values are also accounted for in the area under the curve (AUC) values.
(§6) PROTOCOL TABLE (as described by Inglese J, Shamu CE and Guy RK. 2007)
(§7) SEQUENCE No. (e.g., 1, 2, 3, etc.); […] (e.g., Cells, Incubation, Reagent, etc.); VALUE; DESCRIPTION.
(§8) 1; Reagent; 2 uL; SMMTase Enzyme (2x) in reaction buffer, columns 1- 48.
(§9) 2; Reagent; 1 uL; SAM (4x) in reaction buffer, columns 1-48.
(§10) 3; Controls; 23 nL; DMSO in column 4; sinefungin in DMSO (0 uM - 40 uM) in 7-point 1:2 dilution series (n = 2) in column 2.
(§11) 4; Compounds; 23 nL; Columns 5-48.
(§12) 5; Reagent; 1 uL; Substrate (4x) in reaction buffer, columns 2-48.
(§13) 6; Time; 20-30 min; Incubation.
(§14) 7; Reagent; 1 uL; MTase-Glo reagent (5X), columns 1-48.
(§15) 8; Time; 30 min; Incubation.
(§16) 9; Reagent; 5 uL; MTase-Glo Detection reagent, columns 1-48.
(§17) 10; Time; 30 min; Incubation, luminescence evolution.
(§18) 11; Detection; Luminescence; ViewLux uHTS Microplate Imager (PerkinElmer).
(§19) NOTES (numbers refer to Sequence numbers above)
(§20) 1, 2, 5. White Medium Binding Greiner 1536-well plates (Cat #789175-F, Greiner Bio-One, Monroe, NC); Reaction buffer: 50 mM Tris, pH 8.0, 3 mM MgCl2, 1 mM EDTA, 50 mM NaCl, 1 mM DTT, and 0.1 mg/mL BSA. Evaporation was prevented by covering assay plates with metal lids containing holes to allow gas diffusion.
(§21) 1. Six SMMTase were profiled: HNMT, GNMT, PNMT, COMT, NNMT, GAMT
(§22) 5. The corresponding substrate was used for each enzyme: HNMT - 5.3 uM Histamine; GNMT - >500 uM Glycine; PNMT - 16.2 uM Norephinephrine; COMT - 13.7 uM Norephinephrine; NNMT - 3.8 uM Nicotinamide; GAMT - 2.5 uM Guanidinoacetate.6, 8, 10. Room temperature
(§23) 6. Final reaction conditions: 10 nM COMT, 5 uM SAM, 15 uM norepinephrine, 50 mM Tris, pH 8.0, 3 mM MgCl2, 1 mM EDTA, 50 mM NaCl, 1 mM DTT, and 0.1 mg/mL BSA; refer to tables 2 and S1 for specific timing.
8. […]

[2] = biological target: Guanidinoacetate N-methyltransferase (Homo sapiens) (UniProt Q14353); settings: purified enzyme, MTase-Glo SAH luminescence; measured here: GAMT inhibition; at 40 µM; stronger effect = lower value
Description: as §1, §2, §3, §4, §5, §6, §7, §8, §9, §10, §11, §12, §13, §14, §15, §16, §17, §18, §19, §20, §21, §22, §23
8. […]

[3] = biological target: Histamine N-methyltransferase (Homo sapiens) (UniProt P50135); settings: purified enzyme, MTase-Glo SAH luminescence; measured here: HNMT inhibition; at 40 µM; stronger effect = lower value
Description: as §1, §2, §3, §4, §5, §6, §7, §8, §9, §10, §11, §12, §13, §14, §15, §16, §17, §18, §19, §20, §21, §22, §23
8. […]

[4] = biological target: Nicotinamide N-methyltransferase (Homo sapiens) (UniProt P40261); settings: purified enzyme, MTase-Glo SAH luminescence; measured here: NNMT inhibition; at 40 µM; stronger effect = lower value
Description: as §1, §2, §3, §4, §5, §6, §7, §8, §9, §10, §11, §12, §13, §14, §15, §16, §17, §18, §19, §20, §21, §22, §23
8. […]

[5] = biological target: Phenylethanolamine N-methyltransferase (Homo sapiens) (UniProt P11086); settings: purified enzyme, MTase-Glo SAH luminescence; measured here: PNMT inhibition; at 40 µM; stronger effect = lower value
Description: as §1, §2, §3, §4, §5, §6, §7, §8, §9, §10, §11, §12, §13, §14, §15, §16, §17, §18, §19, §20, §21, §22, §23
8. […]
% is scaled to controls: 0 for no effect and ±100 for the full control effect.

Structure (SMILES) | activity change, negative = inhibition [1] | activity change, negative = inhibition [2] | activity change, negative = inhibition [3] | activity change, negative = inhibition [4] | activity change, negative = inhibition [5]
Cc1ccc(-c2n[nH]n3c2nc(=O)c2ccc(C(=O)NC4CCCCC4)cc23)cc1 | -8.33% | -3.13% | 1.88% | 4.12% | -2.47%
COCC[C@]1(O)CCN(C(=O)c2cccc(OC)c2C)C[C@H]1C | -3.94% | -0.231% | -1.06% | -2.18% | 1.81%
O=C(NC[C@H]1O[C@@H](CO)[C@@H](O)[C@H]1N1CCN(c2ccccn2)CC1)Nc1ccccc1 | -3% | -4.26% | 0.763% | -9.9% | -8.61%
O=C(Cn1ccc2cc(S(=O)(=O)N3CCCC3)ccc21)NC1CCCc2ccccc21 (stereo not drawn) | 1.92% | 0% | -1.09% | -1.85% | -1.61%
C[C@H](C(=O)N1CCOCC1)C1CC[C@@]2(C)Cc3sc(-c4ccccc4)nc3[C@@H](C)[C@@H]2[C@H]1O (stereo partly drawn) | -2.44% | -2.12% | 1.04% | -2.75% | -0.525%
CN(Cc1cccc(-c2nn[nH]n2)c1)C(=O)c1ccc(C2CCCNC2)cc1 (stereo not drawn) | -9.03% | -7.76% | -34.8% | -16.1% | -20.4%
O=C(NC1CCCN(C2CCCCCC2)C1)c1ccccc1C(F)(F)F (stereo not drawn) | -1.77% | -5.83% | -1.32% | -6.86% | -1.82%
COCC(=O)NC[C@H]1CCN(Cc2cccn2C)C[C@H]1N(C)C | -4.92% | -15.3% | -4.72% | -19.5% | -13.9%
N#Cc1ccnc(-c2nnc3ccc(NC4CC4)nn23)c1 | -9.13% | -1.36% | -35.8% | -9.17% | -7.47%
Cc1ccc(C)c(NS(=O)(=O)c2cc3c(cc2C)n(C)c(=O)n3C)c1 | 10.2% | 2.66% | 6% | -2.11% | 5.3%
COC(=O)[C@@H](Cc1c[nH]c2ccccc12)NC(=O)[C@@H]1CN(C(=O)Nc2ccccc2)CCN1C(=O)NC(C)C | -2.79% | 0.776% | -0.924% | 0.763% | 17.7%
CCCN1C(=O)c2c(C(=O)NCCc3ccc(OC)cc3OC)ncn2CC1(C)C(=O)NCc1ccc(C)cc1 (stereo not drawn) | 1.14% | 3.01% | 9.32% | 9.03% | 8.74%
CC1(C(=O)NC2CCCCCCC2)Cn2c(ccc2-c2ccco2)C(=O)N1Cc1ccccc1Cl (stereo not drawn) | -8.57% | 2.92% | -3.17% | -13.1% | -6.21%
O=C1OC[C@@H]2CCN(Cc3ccc(C(F)(F)F)cc3)Cc3ccc(F)cc3N12 | 157% | -9.14% | -6.44% | -14.4% | -9.21%
O=C(OCCN1CCOCC1)C1(c2ccccc2)CCCCC1 | 0.864% | 10.1% | 4.57% | -5.58% | 10.7%
CC(C)C[C@H](NC(=O)[C@H](Cc1ccccc1)NC(=O)c1cnccn1)B(O)O | -1.76% | 0.569% | 10.7% | -14.7% | -4.77%
O=C(c1ccc(C(F)(F)F)cc1)N1CC2CC(C1)[C@H]1CCCC(=O)N1C2 (stereo partly drawn) | -1.52% | -4.15% | -2.18% | -1.32% | -2.73%
CCc1ccc(NC(=O)CSc2nnc3n(CCc4ccccc4)c(=O)c4ccccc4n23)cc1 | 3.66% | 1.36% | 5.59% | 1.59% | 3%
CCOCC(=O)N1CCC(Nc2cccn3ncnc23)CC1 | -41.9% | -22.2% | -2.71% | -5.76% | -12.5%

Structure (SMILES) | activity change, negative = inhibition [1] | activity change, negative = inhibition [2] | activity change, negative = inhibition [3] | activity change, negative = inhibition [4] | activity change, negative = inhibition [5]
COc1ccc(C(=O)Nc2cnc(-c3ccc(Cl)cc3)nc2)cc1 | -2.78% | -2.76% | -1.97% | -4.79% | -7.49%
CC(C)CCNC(=O)C1(C)Cn2c(cc3ccccc32)C(=O)N1Cc1cccs1 (stereo not drawn) | 5.43% | 0% | 4.82% | -2.34% | 0.47%
CC[C@H]1OC(=O)[C@H](C)[C@@H](O[C@H]2C[C@@](C)(OC)[C@@H](O)[C@H](C)O2)[C@H](C)[C@@H](O[C@@H]2O[C@H](C)C[C@H](N(C)C)[C@H]2O)[C@@](C)(O)C[C@@H](C)[C@@H]2N[C@@H](COCCOC)OC([C@H]2C)[C@]1(C)O | 1.02% | 3.92% | 10.1% | -9.91% | 5.11%
CCOC(=O)c1ccc(NC(=O)CN2CCCCC2)cc1 | -0.126% | -3.08% | -2.84% | -12% | 0.438%
COc1cc(C2Oc3c(OC)cc(CCCO[C@@H]4O[C@H](CO)[C@@H](O)[C@H](O)[C@H]4O)cc3C2CO)ccc1O (stereo partly drawn) | -1.27% | -7.62% | 6.62% | -17.3% | 0.45%
CN1C(=O)c2cc(C(=O)NC3CCCCC3)nn2CC1(C)C(=O)NCc1ccccc1 (stereo not drawn) | -4.69% | -13.5% | -1.28% | -5.74% | -6.63%
O=C1C(c2c(O)[nH]c3ccccc23)=Nc2ccccc21 | 7.77% | 5.3% | 6.81% | -4.62% | 5.63%
Cc1ccccc1-c1[nH]nc2ncc(-c3c(C)noc3C)nc12 | -32.7% | -29% | -36.8% | -51.8% | -0.278%
CC(C)N(CCCCOCC(=O)O)c1cnc(-c2ccccc2)c(-c2ccccc2)n1 |  | 11.1% |  | -16.7% | 4.13%
Cc1cccc(N2CCN(C(=O)CCc3nnc4n(Cc5ccccc5)c(=O)c5ccccc5n34)CC2C)c1 (stereo not drawn) | -0.357% | 0% | 1.24% | -3.72% | -0.641%
Cc1cc(C(=O)N2CCC3(CC2)CC(O)CCO3)c(C)o1 (stereo not drawn) | -7.45% | -3.29% | -1.08% | -5.66% | 8.63%
CNC(=O)c1cc(Oc2ccc(NC(=O)c3cccc(C(F)(F)F)c3)cc2)ccn1 | -1.09% | 8.73% | 11.8% | -9.44% | 0.421%
CS(=O)(=O)c1ccc(C(=O)Nc2ccc(Cl)c(-c3ccccn3)c2)c(Cl)c1 | -0.895% | -2.5% | -3.73% | -23.4% | -12.4%
Cc1nc([C@H]2CCNC[C@H]2NC(=O)C2CC2)n[nH]1 | -0.795% | -2.97% | 0.338% | -8.26% | -2.69%
CC(=O)Nc1c2n(c3ccccc13)CC(C)(C(=O)NC1CCCCC1)N(Cc1ccccc1F)C2=O (stereo not drawn) | -2.92% | -1.39% | 0.764% | -12.5% | 0.04%
COC(=O)c1ncn2c1C(=O)N(c1ccc3c(c1)OCCO3)C(C)(C(=O)NCCCOC(C)C)C2 (stereo not drawn) | 3.28% | 2.36% | 13.5% | 8.21% | 11.2%
C=CCn1cc(CN2CCOC(Cc3cccc4ccccc34)C2)c(C)n1 (stereo not drawn) | 0.226% | 1.57% | 0.928% | -6.98% | -0.356%
O=C1N[C@@H](Cc2cccs2)C(=O)N2CC[C@H](NS(=O)(=O)c3cccs3)C[C@@H]12 | -1.07% | 0.9% | 1.4% | -2.63% | 3.02%
CN1CCN(S(=O)(=O)c2ccc(-c3cnc(N)c(C(=O)Nc4cccnc4)n3)cc2)CC1 | -5.77% | -7.97% | -4.47% | -17.4% | -16.5%
